The values below come from ChEMBL document CHEMBL4888484, “Replenishing the malaria drug discovery pipeline: Screening and hit evaluation of the MMV Hit Generation Library 1 (HGL1) against asexual blood stage Plasmodium falciparum ,using a nano luciferase reporter read-out” (2022).

About 540 (0.36%) of roughly 150,000 compounds showed an effect of 50% or more. The list shows a part of the results.

One may read the % Inhibition as the change of the read-out against control, counted positive when it falls.

The assay relates to Plasmodium falciparum. The assay can be described thus: Primary screen in NF54 nanoGlo assay, in single point, at 2uM, 72h; a lower Z score goes with more inhibition. Type of assay: functional, Erythrocyte. The settings on record: timepoint 72 hour.
As to `Cc1ccc(C(=O)CN2C(=O)NC3(CCCCCCC3)C2=O)c(C)c1`, the “% Inhibition” value was -7% and the Z score is 1.04.

As for `CN(Cc1cccnc1)C(=O)[C@@H]1CCCN1C(=O)CC(C)(C)C`, the “% Inhibition” value is listed as -12% and the Z score is 1.53.

On to `COc1ccc(CC(=O)Nc2ccc(N3CCN(c4ccccc4F)CC3)c(S(=O)(=O)N[C@H]3CCCc4ccccc43)c2)cc1`, for which the “% Inhibition” value was -3% and the Z score stood at 0.52.

As for `COC(=O)c1ccc(NC(=O)OC(C)(C)C)nc1`, the “% Inhibition” value is recorded as -4% and the Z score turned out to be 0.78.

For `O=C(O)[C@H]1CC[C@@H](C(=O)N2CCN(c3ccc(F)c(Cl)c3)CC2)C1`, the “% Inhibition” value stood at 0% and the Z score was -0.04.

Regarding `CC(C)(C)c1cc(-c2cnc3n2CCOC3)cc(C(C)(C)C)c1O`, the “% Inhibition” value is listed as 3% and the Z score is reported as -0.39.

With `Cc1nc(CN2C(=O)COc3ccc(S(=O)(=O)N4CCC(C)CC4)cc32)no1`, the “% Inhibition” value is -20% and the Z score was 2.42.

Regarding `CCc1ccc(CN2CCC(CNC(=O)C(C)(C)C)CC2)nc1`, the “% Inhibition” value is on record as -7% and the Z score came to 1.11.

As to `CCCc1cc(C(=O)NC[C@H]2CC[C@H](C(=O)O)CC2)n(C)n1`, the “% Inhibition” value came out at 9% and the Z score was -0.84.

With `Cc1nc(NCC2CCCOC2C(C)C)sc1S(N)(=O)=O` (centres undefined), the “% Inhibition” value is -13% and the Z score came to 1.47.

For `CC(C)(C)OC(=O)[C@]1(C)CCCN1Cc1nc(=O)[nH][nH]1`, the “% Inhibition” value is 1% and the Z score was -0.11.

Regarding `CNC(=O)Cc1nc(-c2cc(F)cc(F)c2)cc(-c2ccc3c(c2)OCO3)n1`, the “% Inhibition” value is -8% and the Z score is on record as 1.07.

In the case of `CCCN(CCc1cccs1)C(=O)CCc1cscn1`, the “% Inhibition” value was -14% and the Z score turned out to be 1.18.

With `CC(C)N(C(=O)CN1C(=O)C[C@H](N(C)C)C1=O)C(C)C`, the “% Inhibition” value is on record as 2% and the Z score is listed as -0.31.

As to `Cc1cccc(C2CC2C(=O)N2CCC3(C2)NC(=O)NC3=O)c1` (centres undefined), the “% Inhibition” value is listed as -6% and the Z score came to 1.16.

On to `O=C(O)c1ccc2c(c1)CCCN2S(=O)(=O)c1cnc(C2CC2)s1`, for which the “% Inhibition” value is on record as -4% and the Z score is 0.7.

For `Cc1ccc2c(Nc3cc(Cl)ccc3F)c(C(=O)N3CCCC3)cnc2n1`, the “% Inhibition” value is reported as -8% and the Z score turned out to be 1.27.

In the case of `CCN1CC(=O)N[C@H]2CN(C(=O)c3cnc(NC(C)C)nc3)CC[C@@H]2OCc2cccc(c2)Oc2cc(OC(C)C)cc(c2)C1=O`, the “% Inhibition” value worked out at 7% and the Z score is listed as -0.83.

Consider `CC(C)NC(=O)[C@@H]1C[C@H](N)CN1C(=O)c1cc2ccccc2s1`, for which the “% Inhibition” value is given as 1% and the Z score is recorded as -0.08.

Regarding `COc1ccc(OC)c(CNC(=O)c2ccc(Oc3nccnc3N3CCOCC3)cc2)c1`, the “% Inhibition” value was 8% and the Z score is -1.27.

Regarding `CCc1noc(C)c1C(=O)NC1CCC(CC)CC1` (centres undefined), the “% Inhibition” value was -3% and the Z score was 0.34.

For the molecule `COc1ccccc1/C=C/CN1CCC2(CC1)C(=O)NCCN2C`, the “% Inhibition” value came to 10% and the Z score is recorded as -1.83.

Take `COc1ccc2cc1OCC(=O)N[C@@H](C)C(=O)N(C)CCCCN(C(=O)c1cc(Cl)ccc1OC)CCCNC(=O)CC2`: the “% Inhibition” value is on record as -6% and the Z score is given as 0.7.

As for `Cc1[nH]ncc1CCCNc1ccc(Cl)c(C#N)n1`, the “% Inhibition” value is 1% and the Z score was -0.11.

On to `CC(C)c1nncn1CCNc1nc(C(F)(F)F)ns1`, for which the “% Inhibition” value is given as -7% and the Z score is given as 1.2.

Turning to `CCOC1CC(O)(CNC(=O)c2c(C)noc2C)C1(C)C` (centres undefined), the “% Inhibition” value is given as -4% and the Z score is recorded as 0.43.

For `Cc1ccc(-c2onc(C)c2C(=O)Nc2ccccc2F)cc1`, the “% Inhibition” value is reported as 4% and the Z score is recorded as -0.43.

Consider `Cc1noc(C(F)F)c1C(=O)N[C@H](c1ncccn1)C1CC1`, for which the “% Inhibition” value worked out at 1% and the Z score is -0.23.

Consider `CCn1ccnc1[C@H](C)NC(=O)c1ccc(Cl)c2occc12`, for which the “% Inhibition” value is on record as -1% and the Z score turned out to be 0.13.

As for `COc1nn(C)cc1C(=O)N1CCN(c2ccc(-c3noc(C)n3)cn2)CC1`, the “% Inhibition” value was 2% and the Z score is given as -0.23.

Consider `CC(C)Cc1nsc(N2CCN(c3cnn(C)c3)C(=O)C2)n1`, for which the “% Inhibition” value is on record as -2% and the Z score was found to be 0.34.

As for `CC1CCN(c2nc(N(C)Cc3ccccc3)nc3c2CN(C(=O)OCc2ccccc2)CC3)CC1`, the “% Inhibition” value is -2% and the Z score was 0.28.

As to `Cc1ccc2nc(N3CCC[C@H](O)C3)c(CN3CCC(F)CC3)cc2c1`, the “% Inhibition” value is given as -5% and the Z score is listed as 0.48.

Regarding `CCc1nc(OCC(=O)N[C@@H](C)c2ccccc2)c2c(C)c(C)oc2n1`, the “% Inhibition” value amounted to 11% and the Z score was -1.53.

Take `CCCCCC(=O)NCCNC(=O)c1ccc(C)nc1`: the “% Inhibition” value was -3% and the Z score was 0.44.

With `Cc1ccc(C)n1CC(=O)N1CCC[C@H](c2nnc3ccccn23)C1`, the “% Inhibition” value is -5% and the Z score stood at 0.61.

With `CCn1c(=O)c(C)nc2cc(-c3noc([C@H](C)NS(=O)(=O)c4ccc(C)cc4)n3)ccc21`, the “% Inhibition” value is -4% and the Z score was 0.42.

Turning to `Cc1ccc(=O)n(CCNC(=O)c2cc(OCc3ccccc3)ncn2)n1`, the “% Inhibition” value is -16% and the Z score turned out to be 2.98.

As for `COc1ccc2nc(C)c(C(=O)N3CC(OCC(F)F)C3)n2n1`, the “% Inhibition” value stood at 37% and the Z score is -5.

As for `CCN(Cc1ccoc1)C(=O)NCc1ccc(OC(F)F)cc1`, the “% Inhibition” value is given as -5% and the Z score is given as 0.62.

For `CCCc1cc(Cn2ccnc2-c2ccc(-c3cc[nH]n3)o2)on1`, the “% Inhibition” value is reported as -5% and the Z score was 0.85.

Regarding `Cc1ccccc1CC(=O)Nc1ccnn1C1CCCC1`, the “% Inhibition” value is on record as -3% and the Z score is on record as 0.53.

For the molecule `O=C(CCc1cccs1)NCc1nnc2ccccn12`, the “% Inhibition” value worked out at 16% and the Z score is listed as -1.84.

For `CCOC(=O)Cn1cnc2c1c(=O)n(CCc1ccccc1)c(=O)n2-c1ccccc1`, the “% Inhibition” value is on record as -16% and the Z score was 1.95.

In the case of `O=C(Cc1cccs1)Nc1nc(-c2ccc3c(c2)OCO3)cs1`, the “% Inhibition” value is reported as -7% and the Z score was determined as 0.94.

As to `CCN(C)c1ccnc(N2CCc3[nH]nc(-c4c(C)noc4C)c3C2)n1`, the “% Inhibition” value is recorded as -3% and the Z score turned out to be 0.31.

Regarding `O=C(c1ccc2c3c([nH]c2c1)CCCC3)N1C[C@H](O)[C@@H](F)C1`, the “% Inhibition” value was -13% and the Z score came to 2.45.

Regarding `Cc1ccc(-c2ccnc3c(C(=O)NCc4cc(F)cc(F)c4)cnn23)cc1C`, the “% Inhibition” value is listed as 28% and the Z score is -3.21.

With `CCn1cc(CN2CCN(C(=O)c3ccco3)CC2)ccc1=O`, the “% Inhibition” value is on record as -18% and the Z score was 1.93.

As for `COC1CCN(c2ccc(NC(=O)c3cc4c(C)cc(F)cc4[nH]3)cc2C(F)(F)F)CC1`, the “% Inhibition” value turned out to be 0% and the Z score was -0.05.

`O=C(c1ccc(F)cc1)N1CCN(C(=O)c2cc(O)cs2)CC1`: the “% Inhibition” value is on record as -15% and the Z score came out at 2.35.

Consider `COc1cc2c(cc1OC)CN(C(=O)c1ccc(S(=O)(=O)N3CCCC3)cc1)CC2`, for which the “% Inhibition” value is recorded as 6% and the Z score is -0.78.
